About 540 (0.36%) of roughly 150,000 compounds showed an effect of 50% or more. This is one part of the list.
Each compound was assayed on Plasmodium falciparum (assay: Primary screen in NF54 nanoGlo assay, in single point, at 2uM, 72h; a lower Z score goes with more inhibition). Conditions: timepoint 72 hour.
Type: functional, Erythrocyte
`Cc1cnn(C2CN(CC(=O)N3CC(=O)Nc4ccccc43)C2)c1` was tested, and the “% Inhibition” value was -10% and the Z score was 1.59.
`CC(=O)N1CCCN(C(=O)c2cc(C(N)=O)cs2)CC1` was tested, and the “% Inhibition” value was -3% and the Z score was 0.53.
In the case of `CCC(=O)N1CCc2cc(N3C[C@@H](C(=O)NC4CCCCC4)CC3=O)ccc21`, the “% Inhibition” value is reported as 1% and the Z score is reported as -0.18.
With `Cc1c(NC(=O)N[C@@H](C)c2nc3c(s2)CCCC3)cnn1C` the “% Inhibition” value was 0% and the Z score was 0.07.
`O=C1N[C@H]2CC[C@@H]1CN(C(=O)c1cccc(-c3ccc4nccc(O)c4c3)c1)C2` was tested, and the “% Inhibition” value was -3% and the Z score was 0.64.
In the case of `CCCCc1oc2ccccc2c1CN1CCC(NC(C)=O)CC1`, the “% Inhibition” value is reported as -8% and the Z score is reported as 0.86.
`COc1cc(C(=O)N(C)C[C@H]2CCOC2)ccn1` was tested, and the “% Inhibition” value was 0% and the Z score was 0.01.
`C[C@H]1CN(C(=O)c2cccc(Oc3ccncc3)c2)CCN1` was tested, and the “% Inhibition” value was -5% and the Z score was 0.71.
With `CCC[C@H](C)CS(=O)(=O)N(C)C1CCC(C)CC1` (stereo not given in full) the “% Inhibition” value was -1% and the Z score was 0.15.
In the case of `COc1ccc(Cc2nc(-c3sccc3Cl)n(CCO)n2)cc1`, the “% Inhibition” value is reported as 1% and the Z score is reported as -0.26.
For `CC(C(=O)Nc1cc(Cl)cc(Cl)c1)N1CCCC(c2nnc3ccc(C(F)(F)F)cn23)C1` (stereo not given), the “% Inhibition” value was -10% and the Z score was 1.13.
For `COc1ccccc1NC(=O)c1oc2ccccc2c1NC(=O)C1CCCC1`, the “% Inhibition” value was 5% and the Z score was -0.85.
In the case of `O=C(CCN1CCC[C@H](NCc2ccccc2)C1)Nc1ccccc1Cl`, the “% Inhibition” value is reported as -2% and the Z score is reported as 0.2.
`CCOC(=O)N1CCc2c(sc(NCc3ccccc3OCC)c2C(=O)Nc2cc(Cl)ccc2OC)C1` was tested, and the “% Inhibition” value was 3% and the Z score was -0.52.
In the case of `CC(C)(C)OC(=O)N1CCOCC1C1CCCC1NCC(=O)NCC1CC1` (stereo not given), the “% Inhibition” value is reported as -1% and the Z score is reported as 0.09.
For `CC(C)c1nccn1CCC(=O)N1CC[C@H](N)C1`, the “% Inhibition” value was 6% and the Z score was -0.94.
With `CCCN1CCN(CCN2CCOC[C@@H]2C)C(C)(C)C1=O` the “% Inhibition” value was -3% and the Z score was 0.35.
`O=C(Nc1ccc(C(=O)c2ccncc2)cc1)c1ccc(O[C@@H](F)C(F)(F)C(F)(F)F)cc1` was tested, and the “% Inhibition” value was 3% and the Z score was -0.38.
In the case of `COc1cccn2ncc(C(=O)N3CCC[C@H]3c3nc(C)cs3)c12`, the “% Inhibition” value is reported as 1% and the Z score is reported as -0.08.
With `O=C(NCc1ccncc1)[C@H]1CCCN(S(=O)(=O)c2ccc3ccccc3c2)C1` the “% Inhibition” value was -7% and the Z score was 1.26.
`Cc1cc(NC(=O)Cn2nc(C3CC3)ccc2=O)sn1` was tested, and the “% Inhibition” value was 14% and the Z score was -1.86.
In the case of `O=C(NCc1ccc(S(=O)(=O)N2CCOCC2)s1)c1ccc(F)cc1F`, the “% Inhibition” value is reported as 0% and the Z score is reported as 0.07.
In the case of `CC(=O)Nc1ccc(C)cc1S(=O)(=O)N1CCCCC[C@H]1c1ccc(C)s1`, the “% Inhibition” value is reported as -10% and the Z score is reported as 1.34.
With `COC1CN(c2ccc(NC(=O)CCc3ccc(Cl)c(C)c3)cc2)C1` the “% Inhibition” value was -8% and the Z score was 1.23.
For `Cc1nn(C)c(Cl)c1S(=O)(=O)N1CCC[C@H]1C(N)=O`, the “% Inhibition” value was -6% and the Z score was 0.79.
In the case of `CC1CC(NCc2ccccc2OCCN2CCOCC2)CN1C` (stereo not given), the “% Inhibition” value is reported as 7% and the Z score is reported as -1.05.
With `Cc1noc(-c2cccc(NC(=O)C3CCN(S(=O)(=O)c4ccc5c(c4)CCC5)CC3)c2)n1` the “% Inhibition” value was 12% and the Z score was -1.62.
For `O=C(c1ccc(S(=O)(=O)N2CCCCC2)cc1)N1CCCCC1`, the “% Inhibition” value was -6% and the Z score was 0.87.
`CN1CC2(CCN(C(=O)c3ccc(F)cc3)CC2)C[C@@H](c2ccccc2)C1=O` was tested, and the “% Inhibition” value was 15% and the Z score was -2.
With `FC(F)(F)c1cccc(Oc2cc(Oc3cccc(C(F)(F)F)c3)nc(-c3ccccc3)n2)c1` the “% Inhibition” value was -12% and the Z score was 2.26.
In the case of `COc1ccc(-c2nc3ccc(C(=O)NCCN4CCOCC4)cc3nc2-c2ccc(OC)cc2)cc1`, the “% Inhibition” value is reported as 9% and the Z score is reported as -1.19.
`CCc1cnc(CNC(=O)Nc2cccc(N3CCCC3=O)c2)s1` was tested, and the “% Inhibition” value was -2% and the Z score was 0.22.
With `O=C(c1cnn2c1OCCC2)N1CCN(c2ccccc2Cl)CC1` the “% Inhibition” value was -9% and the Z score was 1.36.
In the case of `C=CCn1cnc2c1c(=O)n(C1CC1)c(=O)n2-c1ccc(F)cc1`, the “% Inhibition” value is reported as -13% and the Z score is reported as 1.27.
`Cc1cc(C)cc(CN2CCN(C(=O)c3cnc(C)cc3C)CC2=O)c1` was tested, and the “% Inhibition” value was -6% and the Z score was 0.94.
In the case of `CC(C)Cc1nnc(NC(=O)c2ccccn2)[nH]1`, the “% Inhibition” value is reported as -15% and the Z score is reported as 1.84.
`CN(Cc1ccccc1N1CCOCC1)c1ccc2nncn2n1` was tested, and the “% Inhibition” value was -25% and the Z score was 2.51.
For `Cc1ccc(CCC(=O)N2CC(CN3C(=O)COC3=O)C2)cc1C`, the “% Inhibition” value was 15% and the Z score was -1.96.
For `COc1cc(OC)cc(C(=O)N[C@@H](Cn2nccn2)C(C)C)c1`, the “% Inhibition” value was -12% and the Z score was 1.83.
For `COC1(CNC(=O)NC2(Cc3ccccc3)CCCC2)CCOCC1`, the “% Inhibition” value was -6% and the Z score was 0.73.
For `Cc1cc(NC(=O)NCc2ccccc2CC(F)(F)F)c(N(C)C)nn1`, the “% Inhibition” value was -2% and the Z score was 0.39.
In the case of `Cc1sccc1NC(=O)NCc1nc(CN(C)C)cs1`, the “% Inhibition” value is reported as -4% and the Z score is reported as 0.69.
In the case of `O=S(=O)(NCC1CCCC1O)C1Cc2ccccc2C1` (stereo not given), the “% Inhibition” value is reported as -3% and the Z score is reported as 0.41.
In the case of `CCOC(=O)c1cnc(N2CCN(Cc3ccccn3)CC2)s1`, the “% Inhibition” value is reported as -11% and the Z score is reported as 1.52.
With `CC(C)(NC(=O)c1cnc(OCC2CC2)cn1)C(F)(F)F` the “% Inhibition” value was 1% and the Z score was -0.23.
`CN1CCN(S(=O)(=O)c2cccc3nsnc23)C[C@@H]1CO` was tested, and the “% Inhibition” value was 0% and the Z score was -0.02.
`CCn1ccc2ccc(CN3CCC(CC(=O)NC)CC3)cc21` was tested, and the “% Inhibition” value was -3% and the Z score was 0.56.
In the case of `CN(c1cccnn1)C1CCN(C(=O)Nc2ccc(F)cc2)CC1`, the “% Inhibition” value is reported as 32% and the Z score is reported as -3.58.
For `Cc1c([C@@H]2CCCN2C(=O)c2cc(C#N)ccc2Cl)cnn1C`, the “% Inhibition” value was -1% and the Z score was 0.19.
In the case of `Nc1nc(C2CCCC2)ncc1C(=O)N1CCC[C@H](CN2CCCCCC2)C1`, the “% Inhibition” value is reported as -6% and the Z score is reported as 0.92.
With `Cn1nccc1C1(O)CCN(c2ccc3nccnc3n2)CC1` the “% Inhibition” value was 1% and the Z score was -0.18.
In the case of `CN(CCc1nccs1)c1nnc(C2CC2)o1`, the “% Inhibition” value is reported as -8% and the Z score is reported as 1.35.
In the case of `O=C(N[C@H]1CCN(Cc2ccccn2)C[C@@H]1O)c1ccon1`, the “% Inhibition” value is reported as -12% and the Z score is reported as 1.7.
For `CS(=O)(=O)N1CCN(C(=O)COc2ccc(Cl)cc2C2CCCCC2)CC1`, the “% Inhibition” value was 1% and the Z score was -0.19.
In the case of `Cc1cc(O)ccc1NC(=O)Nc1c(C)ccn(C)c1=O`, the “% Inhibition” value is reported as 1% and the Z score is reported as -0.07.
For `Cn1cnc2cc(CN3CCNC(=O)C3(C)C)ccc21`, the “% Inhibition” value was -4% and the Z score was 0.66.
`CC1C(C(F)(F)F)OCCN1C(=O)NC1CCCC1Cc1ccccn1` (stereo not given) was tested, and the “% Inhibition” value was -4% and the Z score was 0.71.
With `Cc1nn(C)c(C)c1C(=O)N1CC(CF)C1` the “% Inhibition” value was 1% and the Z score was -0.17.
With `COC1(C)CC(N(C)C(=O)c2cc3ccccc3o2)C1(C)C` (stereo not given) the “% Inhibition” value was -8% and the Z score was 0.98.
With `C[C@]1(F)CNCCN(C(=O)CCc2ccncn2)C1` the “% Inhibition” value was -4% and the Z score was 0.69.
`CC1CCN(c2nccnc2Oc2ccc(C(=O)N3CCN(c4ccccc4Cl)CC3)cc2)CC1` was tested, and the “% Inhibition” value was 11% and the Z score was -1.7.
For `c1cnc(Cc2noc([C@H]3CCCc4[nH]nnc43)n2)cn1`, the “% Inhibition” value was 21% and the Z score was -2.62.
For `O=C(NC(c1ccccc1)c1ccccc1)c1ccc(OCC2CCOCC2)nc1`, the “% Inhibition” value was -16% and the Z score was 3.06.
For `O=C1N(Cc2ccc(F)cc2)CCC[C@@]1(O)CNC1CC1`, the “% Inhibition” value was -20% and the Z score was 1.79.
`N#Cc1ccccc1OCc1ccc(S(=O)(=O)N2CCCC2)o1` was tested, and the “% Inhibition” value was 7% and the Z score was -0.96.
In the case of `Cc1nn(C)c2nc(N[C@@H]3C[C@@H](CO)N(C)C3)sc12`, the “% Inhibition” value is reported as 3% and the Z score is reported as -0.48.
For `Cc1ccc(-n2cc(-c3ccccc3)nc2NC(=O)CN(Cc2ccccc2)C(=O)NC(C)C)cc1F`, the “% Inhibition” value was 3% and the Z score was -0.24.
With `Cc1c(C(=O)Nc2cnns2)oc2ccccc12` the “% Inhibition” value was -19% and the Z score was 1.91.
For `O=C1Nc2c(-c3ccc(Cl)cc3)cnn2C[C@@H]1CC(=O)N1CCCC1`, the “% Inhibition” value was -10% and the Z score was 1.15.
For `CC[C@@](C)(C#CCN1CCC(Cc2ccccc2)CC1)OCCOCc1ccccc1`, the “% Inhibition” value was -12% and the Z score was 1.62.
With `CCn1nc(CC(N)=O)nc1CCn1cnc2ccccc2c1=O` the “% Inhibition” value was -14% and the Z score was 1.68.
With `N=C(N)c1ccc(-n2cc(-c3ccncc3)cn2)cc1C(F)(F)F` the “% Inhibition” value was 17% and the Z score was -3.04.
With `CCC(C(=O)Nc1cc(C)on1)N1CCOC(Cn2cc(C)cn2)C1` (stereo not given) the “% Inhibition” value was -13% and the Z score was 1.37.
For `Cc1cccc(C)c1NC(=O)Cn1c(=O)n(CC(C)C)c(=O)c2nscc21`, the “% Inhibition” value was -2% and the Z score was 0.26.
With `Cc1cccc(C(=O)N[C@H]2COc3ccc(F)cc32)c1O` the “% Inhibition” value was -13% and the Z score was 1.64.
In the case of `COc1cc(NC(=O)CCc2nnc3ccc(N4CCN(C)CC4)nn23)cc(OC)c1`, the “% Inhibition” value is reported as -27% and the Z score is reported as 2.63.
For `COc1ccc([C@H]2NC(=O)N(c3cccc(C(F)(F)F)c3C)C2=O)c(OC)c1`, the “% Inhibition” value was -1% and the Z score was 0.08.
With `O=C(Nc1ccc(Br)cc1)c1ccc2c(c1)nnn2Cc1ccccc1` the “% Inhibition” value was -10% and the Z score was 1.34.
With `NC(=O)c1ccc(C(=O)N2CC(c3ccccc3F)C2)o1` the “% Inhibition” value was -12% and the Z score was 1.47.
In the case of `Cc1c(N2C(=O)[C@H](C)N(C3CCC3)C2=O)c(=O)n(-c2ccccc2)n1C`, the “% Inhibition” value is reported as 23% and the Z score is reported as -2.64.
`COCCN1CC2CN(C(=O)c3ccco3)CC(C1)O2` was tested, and the “% Inhibition” value was 4% and the Z score was -0.51.
`Cc1noc(C)c1CC(=O)Nc1ccc(OC(C)C)nn1` was tested, and the “% Inhibition” value was 2% and the Z score was -0.24.
For `C[C@H](NC(=O)Nc1cccc2c1CCC2)c1nnc(N)s1`, the “% Inhibition” value was -5% and the Z score was 0.46.
In the case of `O=C([C@H]1CCS(=O)(=O)C1)N(CCc1ccccc1)c1ccccc1`, the “% Inhibition” value is reported as -12% and the Z score is reported as 1.38.
With `O=C(c1csc2cncn12)N1CCC(CCCO)CC1` the “% Inhibition” value was -7% and the Z score was 1.17.

Reference: ChEMBL document CHEMBL4888484, “Replenishing the malaria drug discovery pipeline: Screening and hit evaluation of the MMV Hit Generation Library 1 (HGL1) against asexual blood stage Plasmodium falciparum ,using a nano luciferase reporter read-out” (2022)
